This note sets out measurements from PubChem BioAssay AID488969 (Vanderbilt High Throughput Screening Facility, 2010).

SMILES strings stand for the structures. Over roughly 110,000 compounds, “z-score” has its median near -0.1; the highest 2% begin near 2. Some of the results follow. The source made the active and inactive calls.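 The calls were made as follows: active = z-score in the third read window above 3 or below -3; inactive = the rest.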

The assay has as its target Metabotropic glutamate receptor 8 (Rattus norvegicus) (UniProt P70579). Kind of assay: rat mGluR8 modulators via GIRK flux, primary screen, cell-based, thallium flux, HTS (AID 488969). The following applies: HEK293 rat mGluR8, GIRK (G protein-gated inwardly rectifying potassium channel) thallium flux, FluoZin2; at 10 µM; stronger effect = higher value; submaximal glutamate (EC20) added with thallium.
Sequence of UniProt P70579 (P70579 whole entry, looked up): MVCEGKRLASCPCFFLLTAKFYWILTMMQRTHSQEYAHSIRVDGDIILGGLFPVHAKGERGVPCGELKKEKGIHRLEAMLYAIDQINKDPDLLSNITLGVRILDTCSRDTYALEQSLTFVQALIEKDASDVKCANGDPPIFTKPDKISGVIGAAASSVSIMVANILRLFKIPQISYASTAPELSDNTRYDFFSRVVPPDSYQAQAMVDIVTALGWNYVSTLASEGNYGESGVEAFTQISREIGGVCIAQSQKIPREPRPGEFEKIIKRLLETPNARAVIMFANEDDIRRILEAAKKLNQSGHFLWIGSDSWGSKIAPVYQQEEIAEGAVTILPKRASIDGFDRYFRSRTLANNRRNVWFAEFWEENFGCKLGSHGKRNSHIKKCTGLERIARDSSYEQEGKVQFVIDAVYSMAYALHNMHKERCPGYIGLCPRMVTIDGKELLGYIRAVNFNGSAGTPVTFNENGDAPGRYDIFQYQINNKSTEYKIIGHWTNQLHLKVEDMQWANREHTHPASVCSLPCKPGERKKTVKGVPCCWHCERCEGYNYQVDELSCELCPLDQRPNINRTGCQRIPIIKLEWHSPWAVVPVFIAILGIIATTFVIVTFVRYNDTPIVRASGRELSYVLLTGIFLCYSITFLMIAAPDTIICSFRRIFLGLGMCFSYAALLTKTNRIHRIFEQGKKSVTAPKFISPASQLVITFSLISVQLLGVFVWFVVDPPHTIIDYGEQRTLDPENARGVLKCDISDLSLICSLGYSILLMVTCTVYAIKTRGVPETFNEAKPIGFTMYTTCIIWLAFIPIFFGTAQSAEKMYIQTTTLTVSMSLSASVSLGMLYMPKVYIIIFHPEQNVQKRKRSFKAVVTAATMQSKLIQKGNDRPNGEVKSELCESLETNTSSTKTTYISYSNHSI
The compound `COCCNC(=O)c1onc(CSc2ccc(Cl)cc2)c1C(=O)O` gave a z-score of -0.0433. The value for `Nc1nn(-c2ccccc2)c(N)c1N=Nc1ccccc1F` was -0.34.

As to `O=C(NCc1cccnc1)c1nnc(Cc2ccc(F)cc2)o1`, the z-score is 1.02. `CCSc1ccccc1C(=O)N1CCN(c2ccccc2F)CC1` displayed a z-score of 0.749. The value for `CC(=O)c1ccc(N2Cc3ccccc3/C2=N\C(=O)Nc2ccccc2)cc1` was -0.211; that for `O=C(O)c1cccnc1-c1ncccc1C(=O)O` was 0.688.

In the case of `COc1ccc(C(C)N2CC34C=CC(O3)C(C(=O)OCC(C)C)C4C2=O)cc1` (stereo not given), the z-score is active: 5.16. Then `Cc1onc(-c2ccccc2)c1C(=O)NC(C)C1CCCO1` (stereo not given), with -0.159; and `Cc1ccc(/C=c2\sc3nc(-c4cccnc4)nn3c2=O)cc1`, with 0.151; and `COC(=O)C1CCN(c2c([N+](=O)[O-])cc(C(F)(F)F)cc2[N+](=O)[O-])CC1`, with -0.0994. Then `O=C(CCc1ccccc1)Nc1nnc(-c2cccs2)o1`, with 0.129; and `COc1ccc([N+](=O)[O-])cc1NC(=O)CSCc1ccccc1`, with -0.43.

Consider `O=C(Nc1ccccc1N1CCN(C(=O)c2ccccc2)CC1)c1cc2ccccc2o1`, for which the z-score is 0.308. Then `C=CCn1c(SCC(=O)c2ccccc2)nnc1-c1ccc2c(c1)OCO2`, with -0.481.

Consider `Cc1cc(C)c(S(=O)(=O)NNC(=O)C2CCN(Cc3ccccc3)CC2)c(C)c1`, for which the z-score is -0.966. The value for `Nc1nnnn1/N=C/c1ccccc1OCc1ccccc1` was -0.208; that for `COCCNC(=O)c1ccc(CS(=O)(=O)c2c(Cl)cccc2Cl)o1` was 0.757; that for `CCCCN(C(=O)Cn1nnc2ccccc21)C(C(=O)NCCOC)c1ccccc1` (stereo not given) was -0.227. `COc1cc(NC(=O)c2cccs2)c(C(=O)OCC(=O)NC(=O)NCc2ccccc2)cc1OC` displayed a z-score of -0.586.

In turn, `O=C(NCC1c2ccccc2CCN1C(=O)CN1CCOCC1)C1CCCCC1` (stereo not given) displayed a z-score of -0.979. The value for `CCc1cc2c(=O)c(Oc3ccccc3)c(C)oc2cc1O` was 0.432.

Compound `CCOc1ccc(S(=O)(=O)NCC(=O)N(C)Cc2cccnc2)cc1` returned a z-score of -0.383. For the compound `O=C(Nc1cccc([N+](=O)[O-])c1)C12CC3CC(C1)CC(n1cnc([N+](=O)[O-])n1)(C3)C2`, the z-score is -0.0887. `CCOc1c(Cl)cc(/C=N/O)cc1OC` yielded a z-score of -0.0817.

Compound `O=C(CCCN1C(=O)c2ccccc2C1=O)Nc1ccc(S(=O)(=O)N2CCCCC2)cc1` yielded a z-score of -0.235. Then `CC(=O)Nc1cccc(NC(=O)CSc2nnc(Cc3cccn3C)n2-c2ccc(C)cc2)c1`, with -0.278. Then `CCc1ccccc1NC(=O)CN(C)C(=O)CN1C(=O)NC2(CCCCCC2)C1=O`, with 0.405. Regarding `CN1/C(=C\C=C2/C(=O)Oc3ccccc3C2=O)C(C)(C)c2ccccc21`, the z-score is -1.24. Then `Cc1cc(C)n(C(=O)C(C)n2nc([N+](=O)[O-])c(Br)c2C)n1` (stereo not given), with -0.409; and `O=C(O)/C=C1\NC(=O)c2ccccc21`, with 0.246; and `O=C1/C(=C/c2cccnc2)Sc2ccccc21`, with -1.04. `Cc1nc(N)sc1-c1csc(Nc2ccc(Cl)cn2)n1` yielded a z-score of 0.139. Then `CN(C)c1cccc2c(S(=O)(=O)Nc3ccccn3)cccc12`, with 0.146; and `COc1cc(CC(=O)N/N=C/c2ccccc2)c([N+](=O)[O-])cc1OC`, with 0.0677. `O=C(c1ccc2c(c1)C(=O)N(c1ccc(Cl)cc1)C2=O)N1CCN(c2ccccn2)CC1`: the z-score is -0.0725. Then `CCCCNC(=O)CN(c1cccc(F)c1)S(C)(=O)=O`, with -0.302; and `O=C1/C(=C/Nc2cccc([N+](=O)[O-])c2)CCc2ccccc21`, with -0.099; and `CCOC(=O)Nc1sc(C)c(C)c1C(N)=O`, with -0.105.

The compound `O=C(O)c1ccc(COc2cccc(CO)c2)cc1` had a z-score of -0.245.

On to `CCCNc1nc2c(c(=O)n(C)c(=O)n2C)n1Cc1cccc(C)c1`, for which the z-score was -0.0556. Then `Cc1ccc(S(=O)(=O)N2CCN(C(=O)C3=COCCO3)CC2)cc1C`, with -0.111. Regarding `O=C(NCc1ccccn1)Nc1ccc(Cl)c(Cl)c1`, the z-score is -0.732. The value for `CC1(C)CC(=O)C2=C(C1)N=C1c3ccccc3C(=O)C1C2c1ccc(Cl)cc1` (stereo not given) was -1.67. Then `O=C(OCc1ccc([N+](=O)[O-])cc1)C1CCN(S(=O)(=O)c2ccccc2)CC1`, with -0.136.

With `C=CCSc1nnc(NC(=O)CSc2nc3ccccc3o2)s1`, the z-score is -0.372.

`Cc1ccc(NC(=O)CCC(=O)O)cc1F` came in with a z-score of 0.48. Then `COCC(=O)N1CCCc2ccccc21`, with 0.0509.

In turn, `Cc1ccc(N2CC(C(=O)Nc3ccc(S(=O)(=O)N4CCCC4)cc3)CC2=O)cc1` (stereo not given) returned a z-score of -0.329.

`COC(=O)c1ccccc1COn1c(=O)c(C)[n+]([O-])c2ccccc21` returned a z-score of 0.114. Then `CC(=O)OCCCNc1cc(Sc2ccc(Cl)cc2)c2nonc2c1[N+](=O)[O-]`, with 0.978; and `COC(=O)c1cc(C(=O)NCCN2C(=O)S/C(=C\c3cccs3)C2=O)cc([N+](=O)[O-])c1`, with -0.135. For the compound `Cc1ccc(N=Nc2ccc(O)c3ncccc23)cc1`, the z-score was 2.05.

For the compound `COCCOC(=O)c1c(NC(=O)CN2CCCc3ccccc32)sc(C(N)=O)c1C`, the z-score was -0.382. Then `CCCC(C)NC1=NCCCCC1` (stereo not given), with 0.206; and `CCCCC(CC)C1OCC(C[N+]2(C)CCOCC2)O1` (stereo not given), with -0.121. Then `COc1ccccc1NS(=O)(=O)c1ccc(C)c(C(=O)NCC2CCCO2)c1` (stereo not given), with 0.0452. Consider `CCOC(=O)c1cnc2ccc(F)cc2c1Nc1ccc2c(c1)OCCO2`, for which the z-score is -0.574. The value for `Cc1ccc(Oc2cc(NC(=O)CCCn3nc([N+](=O)[O-])cc3C)cc([N+](=O)[O-])c2)cc1` was -0.627; that for `Cc1cccc(NC(=O)CCN2CC(C)OC(C)C2)c1` (stereo not given) was 0.142. The value for `NC(=O)c1cn(-c2ccccc2)nc1-c1cc2ccccc2oc1=O` was -0.199; that for `CSc1nc(-c2ccccc2)nn1C(=O)c1ccccc1` was -0.107.

The compound `CCOC(=O)C1=C(C)Nc2ccccc2N=C1NC(=O)C(CC)c1ccccc1` (stereo not given) displayed a z-score of -0.283. Then `CCOC(=O)C1C(=O)C=C(c2ccc(C)cc2)CC1c1ccc([N+](=O)[O-])cc1` (stereo not given), with -0.411; and `CCCCCn1c(=NC(=O)c2ccco2)c(C(=O)OCC)cc2c(=O)n3ccccc3nc21`, with -0.363. Then `CCCC(=O)NCCc1ccc(F)cc1`, with -0.00833; and `COc1ccc(Cn2c(C3CC3)nc3ccc(NC(=O)C4CC4)cc3c2=O)cc1`, with 0.333; and `Cc1nnc2n(Cc3ccccc3)c(=O)c3c4c(sc3n12)COC(C)(C)C4`, with 0.198.

For `CC(=O)Nc1c2c(nn1-c1ccc(C)cc1C)CSC2`, the z-score is -0.841. Then `CC(C)(C)c1ccc(N2C(=O)Cc3c2nc(N)c(C#N)c3N)cc1`, with 0.21; and `O=C(O)C1CC=CCC1C(=O)Nc1ccccc1C(=O)N1CCN(c2ccccc2)CC1` (stereo not given), with -0.11.
